Data reported in PMC4336329 (PLoS ONE, 2015).
The campaign covered roughly 310,000 compounds. About 14,000 (4.5%) showed an effect of 50% or more. The effect is printed as a negative number. This is one part of the list.

Biological target: human ether-à-go-go-related gene (hERG) potassium channel (human, UniProt Q12809)
Experiment: primary screen, population patch clamp on CHO cells stably expressing hERG
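Note: peak tail current of the secondary pulse compared with the same well before compound.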

human ether-à-go-go-related gene (hERG) potassium channel, sequence (Q12809 whole entry, looked up): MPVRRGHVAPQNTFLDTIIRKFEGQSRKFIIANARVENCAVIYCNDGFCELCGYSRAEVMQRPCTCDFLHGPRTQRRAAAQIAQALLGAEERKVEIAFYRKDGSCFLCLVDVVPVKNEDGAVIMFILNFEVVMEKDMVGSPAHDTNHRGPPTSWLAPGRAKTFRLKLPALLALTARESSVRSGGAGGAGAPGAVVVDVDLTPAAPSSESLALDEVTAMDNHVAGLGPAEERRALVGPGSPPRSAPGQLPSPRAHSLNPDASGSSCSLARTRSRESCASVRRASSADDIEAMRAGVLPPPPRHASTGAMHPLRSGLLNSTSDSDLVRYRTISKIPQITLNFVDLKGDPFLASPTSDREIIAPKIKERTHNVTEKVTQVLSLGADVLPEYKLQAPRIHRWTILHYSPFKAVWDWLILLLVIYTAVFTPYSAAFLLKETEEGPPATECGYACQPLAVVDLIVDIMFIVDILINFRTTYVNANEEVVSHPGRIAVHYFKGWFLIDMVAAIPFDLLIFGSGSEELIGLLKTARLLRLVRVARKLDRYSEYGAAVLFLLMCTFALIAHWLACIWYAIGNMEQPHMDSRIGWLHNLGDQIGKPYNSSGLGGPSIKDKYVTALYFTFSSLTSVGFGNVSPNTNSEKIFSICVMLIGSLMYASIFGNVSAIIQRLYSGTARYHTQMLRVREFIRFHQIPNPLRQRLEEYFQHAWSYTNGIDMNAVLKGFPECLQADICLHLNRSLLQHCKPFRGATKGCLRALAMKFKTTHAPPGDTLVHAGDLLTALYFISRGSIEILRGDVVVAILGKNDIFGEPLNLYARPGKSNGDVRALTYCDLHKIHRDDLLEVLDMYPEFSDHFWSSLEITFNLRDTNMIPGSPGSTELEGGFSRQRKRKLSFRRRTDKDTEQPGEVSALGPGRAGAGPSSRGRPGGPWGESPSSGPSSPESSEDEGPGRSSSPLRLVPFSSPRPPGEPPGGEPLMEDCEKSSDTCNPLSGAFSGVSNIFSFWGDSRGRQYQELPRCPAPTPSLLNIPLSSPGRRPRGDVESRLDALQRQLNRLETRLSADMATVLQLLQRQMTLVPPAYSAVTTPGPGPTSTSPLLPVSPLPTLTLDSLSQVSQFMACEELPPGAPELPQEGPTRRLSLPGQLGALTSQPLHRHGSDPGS

SMILES | hERG current change (%, negative = inhibition) at 10uM [%]
COc1cc(CNCCc2c[nH]c3ccccc23)ccc1OCc1ccccc1F.Cl | -52
S=C1N(c2ccccc2)C(c2ccc(Br)cc2)N2CCCN12 (stereo not drawn) | 10.2
COC(=O)[C@H](CCSC)NC(=O)NCCC1=CCCCC1 | -4.33
Cn1nc(C(=O)Nc2nc3ccccc3[nH]2)ccc1=O | -35.8
CCOC(=O)c1ccc(S(=O)(=O)Nc2ccc3cn[nH]c3c2)cc1 | 2.39
COC(=O)c1nc2ccccn2c1F | 13.2
Cl.O=C(CN(CCO)c1ccccc1)NC12CC3CC(CC(C3)C1)C2 | 5.29
C/C(=C\c1ccccc1)CN1CCN(c2ccccc2F)CC1 | 5.01
COc1cc(/C=C2\SC(=S)N(CCC(=O)Nc3ccc(O)cc3)C2=O)cc(OC)c1OC | 11.9
Cc1cccc(/C=N/NC(=O)c2cc3c(s2)-c2ccccc2CC3)c1 | 9.72
CCCCc1nc(C(N)=O)c2[nH]c(=O)n(-c3ccc(OC)cc3OC)c2n1 | 1.88
Cc1ccc(Cn2nc(C)c(NC(=O)C3(C)CC3(Br)Br)c2C)cc1 (stereo not drawn) | -1.81
Cc1cc(CC(=O)O)c2oc(-c3ccoc3)cc(=O)c2c1 | 17.2
O=C(/C=C/Nc1ccc(Oc2ccccc2)cc1)c1ccco1 | 9
CCCCP(=O)(O)CCC(=O)O | 12.7
Cc1cc(NC(=O)c2ccc(S(=O)(=O)N3CCOCC3)cc2)no1 | 17.5
CCNc1nc(NCC)nc(SCCOC(=O)COc2ccc(Cl)cc2Cl)n1 | 6.49
Cc1ccc(S(=O)(=O)N2c3ccccc3-c3c(ssc3=S)C2(C)C)cc1 | -2.34
CCCCc1ncc(CN2CCC(n3nccc3NC(=O)C(OC)c3ccccc3)CC2)[nH]1 (stereo not drawn) | 9.16

SMILES | hERG current change (%, negative = inhibition) at 10uM [%]
Cn1ccnc1SCC(=O)NC1CC1 | -13.9
COc1cccc(-c2cc(C(=O)NN3CCOCC3)c3ccccc3n2)c1 | -24.3
CC(=O)Nc1ccc(C(=O)N/C(=C/c2ccccc2)C(=O)N2CCCCC2)cc1 | 4.57
CC(=O)Nc1ccc2nc(NC(=O)COc3ccccc3Cl)sc2c1 | 13.9
CCCC(=O)Nc1ccc(C(=O)N/N=C2\CC(=O)CC(C)(C)C2)cc1 | -12.3
COC(=O)c1ccc2c(=O)n(CCN3CCOCC3)c(=S)[nH]c2c1 | -12.1
NS(=O)(=O)c1ccc(NC(=S)NCc2ccco2)cc1 | 12.5
CCOc1c(Br)cc(CNc2ccc(N3CCOCC3)cc2)cc1OC | 19.8
Cc1ccc(CN=Cc2[nH]c3ccc(Br)c(Cl)c3c2O)cc1 | 10.4
COc1ccc2c(c1)CCCC21NC(=O)N(CC(=O)NC(=O)NCc2ccccc2)C1=O (stereo not drawn) | 9.12
CCOc1ccc([C@@H]2CC=C(C(=O)O)[C@H](c3ccc(F)cc3)N2S(=O)(=O)c2ccc(C)cc2)cc1 | 16.7
CCc1ccc(-c2cc(-c3n[nH]c(=S)n3CC)c3ccccc3n2)cc1 | 2.2
Cc1ccc(N(CC(=O)NCc2ccccc2)S(=O)(=O)c2c(C)noc2C)cc1 | 15.2
Cc1ccc(C(=O)CN2C(=O)NC3(CCOc4ccccc43)C2=O)s1 (stereo not drawn) | -12.2
COc1ccc(NS(=O)(=O)c2cccc(C(=O)NNC(=O)c3cc(S(N)(=O)=O)ccc3OC)c2)cc1 | -1.5
O=S(=O)(NC(=NCCc1ccc(Cl)cc1)c1ccccc1Cl)c1cccs1 | 0.244
Cc1cccc(C)c1OCc1nc2ccccc2c(=O)n1/N=C/c1ccc(OCC(=O)O)cc1 | 7.75
CN(CC(=O)Nc1ccc(Cl)c(C(F)(F)F)c1)C(=O)c1cccc(N2C(=O)CCC2=O)c1 | -20.5
CCC1(CC)Cc2ccccc2-c2nc(-c3ccccc3)oc(=O)c21 | 14.5

SMILES | hERG current change (%, negative = inhibition) at 10uM [%]
COc1ccc(C(=O)N2CC(=O)Nc3ccccc32)cc1S(=O)(=O)N1CCOCC1 | 6.04
Cc1ccc(NC(=O)C2CCN(S(=O)(=O)c3ccccc3)CC2)cc1 | -15.4
COc1cc(/C=N/NC2=NC(C)(C)Cc3ccccc32)cc(OC)c1OC | -4.24
COc1ccc(NC(=O)CN2CCN(CC(=O)Nc3ccccc3F)CC2)c(OC)c1 | -63.5
COc1ccc(-n2c(=O)c(CCC(=O)N(C)Cc3ccccc3C)nc3ccccc32)cc1 | -50.4
C=C1CCN([C@H](C(=O)NCc2cc(OC)c(OC)c(OC)c2)C(C)C)S(=O)(=O)c2ccccc21 | 0.512
CCC(C)(C)C1CCc2c(sc(NC(=O)c3ccoc3C)c2C(N)=O)C1 (stereo not drawn) | 17.8
COC(=O)C1=C(C)N(C)C(=O)NC1c1ccccc1 (stereo not drawn) | -5.95
Cc1ccc(C2C(C(=O)O)c3ccccc3C(=O)N2C)c(C)c1 (stereo not drawn) | -12.1
COc1ccc2nc(NCCNC(=S)NCCCN3CCOCC3)c(C#N)cc2c1 | -4.46
CN(C)CCNc1oc(-c2ccccc2F)nc1C#N | -10.7
Cc1sc(NC(=O)CSc2nnnn2C2CCCC2)c(C#N)c1C | -0.024
CCOc1ccc(NC(=O)c2c3c(nc4ccccc24)CCC3)cc1 | 8.95
COc1ccc(-c2cc(=O)c3ccccc3[nH]2)cc1 | 9.89
NC(=O)NCc1cccc(Cl)c1 | 12.3
O=S(=O)(NCc1ccccc1)c1cccs1 | -0.117
CC(CCc1ccccc1)NC(=O)N1CCOCC1 (stereo not drawn) | -7.1
S=C1NC2=C(CCCC2=C2SCCCS2)C(c2ccccc2)N1 (stereo not drawn) | 13.9
Cc1ccc(CNC(=O)CN(C2CCCCC2)S(C)(=O)=O)cc1 | -12.4
